# Assay results taken from the supplement of paper PMC10037445.
# Where “and” joins values, the source holds several entries; their conditions need not be identical. Equal values may be shown once. The full ranking holds about 2,900 compounds; the median of “IRF Lucia reporter activity, fold change vs agonist alone” is about 0.9, and the highest 2% start at about 2.8. The list shows a part of the results.
# How the values were obtained:
# [1] = tested on: RAW-Dual; test: IRF Lucia reporter activity, fold change vs agonist alone; higher = enhanced IRF activity; settings: library stock concentration (final ~1000-fold dilution): 10 mM, agonist: MPLA (TLR4) […]
# How it was run: (§1)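 Reporter activity is given as fold change relative to agonist-alone wells. To measure it, 50 nL of library stock was pin-tooled onto RAW-Dual macrophages (50,000 cells/well, DMEM, 384-well plates), a PRR agonist followed 1 h later, and cells stayed at 37 °C, 5% CO2. Twenty hours on, supernatant was assayed for IRF (QuantiLuc luminescence) and NF-κB (QuantiBlue, 620 nm absorbance), and wells under 70% of agonist-control IncuCyte confluency in both mask sets were marked cytotoxic.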
# [2] = tested on: RAW-Dual; test: IRF Lucia reporter activity, fold change vs agonist alone; cytotoxicity flag (confluency mask): not cytotoxic; higher = enhanced IRF activity
# How it was run: as §1
# [3] = tested on: RAW-Dual; test: IRF Lucia reporter activity, fold change vs agonist alone; cytotoxicity flag (confluency mask): cytotoxic (confluency <70% of control); higher = enhanced IRF activity
# How it was run: as §1
# [4] = cytotoxicity flag (confluency mask): not cytotoxic
# [5] = agonist: 3'3'-cGAMP (STING) 10 ug/mL
# [6] = cytotoxicity flag (confluency mask): cytotoxic (confluency <70% of control)
compound,measurement,setting,value
Br.NC(=O)C(c1ccccc1)(c1ccccc1)C1CCN(CCc2ccc3c(c2)CCO3)C1 (stereo unspecified),IRF Lucia reporter activity,[1]; [4],1.17
Br.NC(=O)C(c1ccccc1)(c1ccccc1)C1CCN(CCc2ccc3c(c2)CCO3)C1 (stereo unspecified) (library stock concentration (final ~1000-fold dilution): 10 mM),IRF Lucia reporter activity,[2]; [5],0.439
same,IRF Lucia reporter activity,[2]; agonist: LPS (TLR4) 0.1 ug/mL,1.24
CCC1=CC2CN(C1)Cc1c([nH]c3ccccc13)C(C(=O)OC)(c1cc3c(cc1OC)N(C)C1C(O)(C(=O)OC)C(OC(C)=O)C4(CC)C=CCN5CCC31C54)C2 (stereo unspecified) (library stock concentration (final ~1000-fold dilution): 10 mM),IRF Lucia reporter activity,[3]; [5],0.371
same,IRF Lucia reporter activity,[3]; agonist: LPS (TLR4) 0.1 ug/mL,2.95
CCC1=CC2CN(C1)Cc1c([nH]c3ccccc13)C(C(=O)OC)(c1cc3c(cc1OC)N(C)C1C(O)(C(=O)OC)C(OC(C)=O)C4(CC)C=CCN5CCC31C54)C2 (stereo unspecified),IRF Lucia reporter activity,[1]; [6],2.68
O=C(Nc1cccc(C(F)(F)F)c1)Nc1cc(S(=O)(=O)NC2CC2)ccc1-c1ccsc1,IRF Lucia reporter activity,[1]; [4],0.98
O=C(Nc1cccc(C(F)(F)F)c1)Nc1cc(S(=O)(=O)NC2CC2)ccc1-c1ccsc1 (library stock concentration (final ~1000-fold dilution): 10 mM),IRF Lucia reporter activity,[2]; [5],0.438
same,IRF Lucia reporter activity,[2]; agonist: LPS (TLR4) 0.1 ug/mL,0.902
Cl.c1ccc(CC2=NCCN2)cc1 (library stock concentration (final ~1000-fold dilution): 10 mM),IRF Lucia reporter activity,[2]; [5],1.09
same,IRF Lucia reporter activity,[2]; agonist: LPS (TLR4) 0.1 ug/mL,1.08
Cl.c1ccc(CC2=NCCN2)cc1,IRF Lucia reporter activity,[1]; [4],1.12
CC(C(=O)O)c1ccc2c(c1)[nH]c1ccc(Cl)cc12 (stereo unspecified) (library stock concentration (final ~1000-fold dilution): 10 mM),IRF Lucia reporter activity,[2]; [5],1.11
same,IRF Lucia reporter activity,[2]; agonist: LPS (TLR4) 0.1 ug/mL,0.508
CC(C(=O)O)c1ccc2c(c1)[nH]c1ccc(Cl)cc12 (stereo unspecified),IRF Lucia reporter activity,[1]; [4],1.05
CC(NC(=O)C(Cc1ccccc1)NC(=O)OCc1ccccc1)C(=O)CF (stereo unspecified),IRF Lucia reporter activity,[1]; [4],1.29
CC(NC(=O)C(Cc1ccccc1)NC(=O)OCc1ccccc1)C(=O)CF (stereo unspecified) (library stock concentration (final ~1000-fold dilution): 10 mM),IRF Lucia reporter activity,[2]; [5],0.98
same,IRF Lucia reporter activity,[2]; agonist: LPS (TLR4) 0.1 ug/mL,1.27
CC(C)(C)NC(=O)C1CCC2C3CCC4NC(=O)C=CC4(C)C3CCC12C (stereo unspecified),IRF Lucia reporter activity,[1]; [4],1.03
CC(C)(C)NC(=O)C1CCC2C3CCC4NC(=O)C=CC4(C)C3CCC12C (stereo unspecified) (library stock concentration (final ~1000-fold dilution): 10 mM),IRF Lucia reporter activity,[2]; [5],1.08
same,IRF Lucia reporter activity,[2]; agonist: LPS (TLR4) 0.1 ug/mL,0.872
C[C@H]1[C@@H](O)O[C@@H]2OC3(C)CC[C@H]4[C@H](C)CC[C@@H]1[C@@]24OO3 (library stock concentration (final ~1000-fold dilution): 10 mM),IRF Lucia reporter activity,[2]; [5],0.345
same,IRF Lucia reporter activity,[2]; agonist: LPS (TLR4) 0.1 ug/mL,0.834
CC(C)c1cc2c(cc1S(=O)(=O)O)[C@@]1(C)CCC[C@@](C)(C(=O)O)[C@@H]1CC2 (library stock concentration (final ~1000-fold dilution): 10 mM),IRF Lucia reporter activity,[2]; [5],0.936
same,IRF Lucia reporter activity,[2]; agonist: LPS (TLR4) 0.1 ug/mL,0.763
Cc1ccccc1C(=O)Nc1ccc(C(=O)N2CCCC(O)c3cc(Cl)ccc32)c(C)c1 (stereo unspecified),IRF Lucia reporter activity,[1]; [4],0.901
Cc1ccccc1C(=O)Nc1ccc(C(=O)N2CCCC(O)c3cc(Cl)ccc32)c(C)c1 (stereo unspecified) (library stock concentration (final ~1000-fold dilution): 10 mM),IRF Lucia reporter activity,[2]; [5],0.765
same,IRF Lucia reporter activity,[2]; agonist: LPS (TLR4) 0.1 ug/mL,0.817
NC(=O)c1ccc(-c2nc(-c3ccc4c(c3)OCCO4)c(-c3ccccn3)[nH]2)cc1 (library stock concentration (final ~1000-fold dilution): 10 mM),IRF Lucia reporter activity,[2]; [5],0.616
same,IRF Lucia reporter activity,[2]; agonist: LPS (TLR4) 0.1 ug/mL,1.29
CCOC(=O)C1=C(COCCN)NC(C)=C(C(=O)OC)C1c1ccccc1Cl (stereo unspecified) (library stock concentration (final ~1000-fold dilution): 10 mM),IRF Lucia reporter activity,[3]; [5],0.715 and 0.401
same,IRF Lucia reporter activity,[3]; agonist: LPS (TLR4) 0.1 ug/mL,2.55 and 2.72
Oc1ccc(/C=C/c2cc(O)cc(O)c2)cc1 (library stock concentration (final ~1000-fold dilution): 10 mM),IRF Lucia reporter activity,[2]; [5],0.766
same,IRF Lucia reporter activity,[2]; agonist: LPS (TLR4) 0.1 ug/mL,0.563
same,IRF Lucia reporter activity,[3]; [5],0.119
same,IRF Lucia reporter activity,[3]; agonist: LPS (TLR4) 0.1 ug/mL,0.446
Oc1ccc(/C=C/c2cc(O)cc(O)c2)cc1,IRF Lucia reporter activity,[1]; [4],0.727
Cc1ncc(CCCN(C)C)cc1Nc1ncc2c(n1)-c1ccc(C(F)(F)F)cc1NC(=S)C2,IRF Lucia reporter activity,[1]; [6],0.727
Cc1ncc(CCCN(C)C)cc1Nc1ncc2c(n1)-c1ccc(C(F)(F)F)cc1NC(=S)C2 (library stock concentration (final ~1000-fold dilution): 10 mM),IRF Lucia reporter activity,[3]; [5],0.0789
same,IRF Lucia reporter activity,[3]; agonist: LPS (TLR4) 0.1 ug/mL,0.56
COc1cc2c(cc1OC)C1Cc3ccc(OC)c(OC)c3CN1CC2 (stereo unspecified) (library stock concentration (final ~1000-fold dilution): 10 mM),IRF Lucia reporter activity,[2]; [5],0.933
same,IRF Lucia reporter activity,[2]; agonist: LPS (TLR4) 0.1 ug/mL,0.84
COc1cc2c(cc1OC)C1Cc3ccc(OC)c(OC)c3CN1CC2 (stereo unspecified),IRF Lucia reporter activity,[1]; [4],1.05
COc1ccc(C2=NC(c3ccc(Cl)cc3)C(c3ccc(Cl)cc3)N2C(=O)N2CCNC(=O)C2)c(OC(C)C)c1 (stereo unspecified) (library stock concentration (final ~1000-fold dilution): 10 mM),IRF Lucia reporter activity,[2]; [5],0.418 and 0.472
same,IRF Lucia reporter activity,[2]; agonist: LPS (TLR4) 0.1 ug/mL,1.54 and 1.25
COc1ccc(C2=NC(c3ccc(Cl)cc3)C(c3ccc(Cl)cc3)N2C(=O)N2CCNC(=O)C2)c(OC(C)C)c1 (stereo unspecified),IRF Lucia reporter activity,[1]; [4],1.45
CCN(CC)CCNC(=O)c1c(C)[nH]c(/C=C2\C(=O)Nc3ccc(F)cc32)c1C (library stock concentration (final ~1000-fold dilution): 10 mM),IRF Lucia reporter activity,[3]; [5],0.0176
same,IRF Lucia reporter activity,[3]; agonist: LPS (TLR4) 0.1 ug/mL,0.187
CCOc1cc2ncc(C#N)c(Nc3ccc(F)c(Cl)c3)c2cc1NC(=O)/C=C/CN(C)C,IRF Lucia reporter activity,[1]; [4],0.0274
CCOc1cc2ncc(C#N)c(Nc3ccc(F)c(Cl)c3)c2cc1NC(=O)/C=C/CN(C)C (library stock concentration (final ~1000-fold dilution): 10 mM),IRF Lucia reporter activity,[2]; [5],0.0535
same,IRF Lucia reporter activity,[2]; agonist: LPS (TLR4) 0.1 ug/mL,0.0225
Cc1ncc(NC(=O)c2cccc(C(F)(F)F)c2)cc1-c1cnc(OC2CCOCC2)c(N2CCOCC2)c1 (library stock concentration (final ~1000-fold dilution): 10 mM),IRF Lucia reporter activity,[2]; [5],0.811
same,IRF Lucia reporter activity,[2]; agonist: LPS (TLR4) 0.1 ug/mL,0.615
O=c1c(-c2ccc(O)cc2)coc2cc(OC3OC(CO)C(O)C(O)C3O)ccc12 (stereo unspecified) (library stock concentration (final ~1000-fold dilution): 10 mM),IRF Lucia reporter activity,[2]; [5],1.03
same,IRF Lucia reporter activity,[2]; agonist: LPS (TLR4) 0.1 ug/mL,1.03
O=c1c(-c2ccc(O)cc2)coc2cc(OC3OC(CO)C(O)C(O)C3O)ccc12 (stereo unspecified),IRF Lucia reporter activity,[1]; [4],1.07
